Experimental data taken from the supplement of paper PMC8728848.
This is one part of the list.

Key:
Assay in all cases: glycan array binding signal (z-score within array); higher = stronger binding
Conditions in all cases: glycan notation: IUPAC condensed, linker removed
[1] = biological target: Fuc(a1-2)[Gal(a1-3)]Gal(b1-4)GlcNAc(b1-2)Man(a1-3)[Fuc(a1-2)[Gal(a1-3)]Gal(b1-4)GlcNAc(b1-2)Man(a1-6)]Man(b1-4)GlcNAc(b1-4)GlcNAc
Method in brief: (§1)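 Glycan array binding is given as a within-array Z-score, which can be read as non-binding when negative. The arrays, 3228 of them, came from the Consortium for Functional Glycomics database and were retained only where the protein sequence was available. Z-scores were averaged across arrays of the same protein sequence at different concentrations or buffers and across linkers.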

[2] = biological target: Fuc(a1-2)[Gal(a1-3)]Gal(b1-4)[Fuc(a1-3)]GlcNAc
Method in brief: as §1

[3] = biological target: Fuc(a1-2)[Gal(a1-4)]Gal(b1-4)GlcNAc
Method in brief: as §1

[4] = biological target: Fuc(a1-2)[GalNAc(a1-3)]Gal
Method in brief: as §1

[5] = biological target: Fuc(a1-2)[GalNAc(a1-3)]Gal(b1-3)GlcNAc
Method in brief: as §1

[6] = biological target: Fuc(a1-2)[GalNAc(a1-3)]Gal(b1-3)GlcNAc(b1-2)Man(a1-3)[Fuc(a1-2)[GalNAc(a1-3)]Gal(b1-3)GlcNAc(b1-2)Man(a1-6)]Man(b1-4)GlcNAc(b1-4)GlcNAc
Method in brief: as §1

[7] = biological target: Fuc(a1-2)[GalNAc(a1-3)]Gal(b1-4)Glc
Method in brief: as §1

[8] = biological target: Fuc(a1-2)[GalNAc(a1-3)]Gal(b1-4)GlcNAc
Method in brief: as §1

[9] = biological target: Fuc(a1-2)[GalNAc(a1-3)]Gal(b1-4)GlcNAc(b1-2)Man(a1-3)[GalNAc(a1-3)[Fuc(a1-2)]Gal(b1-4)GlcNAc(b1-2)Man(a1-6)]Man(b1-4)GlcNAc(b1-4)GlcNAc
Method in brief: as §1

[10] = biological target: Fuc(a1-2)[GalNAc(a1-3)]Gal(b1-4)GlcNAc(b1-3)Gal(b1-4)GlcNAc
Method in brief: as §1

[11] = biological target: Fuc(a1-2)[GalNAc(a1-3)]Gal(b1-4)GlcNAc(b1-3)Gal(b1-4)GlcNAc(b1-3)Gal(b1-4)GlcNAc
Method in brief: as §1

[12] = biological target: Fuc(a1-2)[GalNAc(a1-3)]Gal(b1-4)[Fuc(a1-3)]GlcNAc
Method in brief: as §1

[13] = biological target: Fuc(a1-2)[GalNAc(a1-4)]Gal(b1-4)GlcNAc
Method in brief: as §1

[14] = biological target: Fuc(a1-2)[GalNAc(b1-3)]Gal
Method in brief: as §1

Fuc(a1-3)GlcNAc = biological target: Fuc(a1-3)GlcNAc
Method in brief: as §1

[15] = biological target: Fuc(a1-3)[Gal(b1-4)]Glc6S
Method in brief: as §1

[16] = biological target: Fuc(a1-3)[Gal(b1-4)]GlcNAc
Method in brief: as §1

[17] = biological target: Fuc(a1-3)[Gal(b1-4)]GlcNAc(b1-2)Man(a1-3)[Fuc(a1-3)[Gal(b1-4)]GlcNAc(b1-2)Man(a1-6)]Man(b1-4)GlcNAc(b1-4)GlcNAc
Method in brief: as §1

[18] = biological target: Fuc(a1-3)[Gal(b1-4)]GlcNAc(b1-2)Man(a1-6)[Gal(b1-4)GlcNAc(b1-2)Man(a1-3)]Man(b1-4)GlcNAc(b1-4)GlcNAc
Method in brief: as §1

[19] = biological target: Fuc(a1-3)[Gal(b1-4)]GlcNAc(b1-3)Gal(b1-3)[Fuc(a1-4)]GlcNAc
Method in brief: as §1

[20] = biological target: Fuc(a1-3)[Gal(b1-4)]GlcNAc(b1-4)Gal(b1-4)[Fuc(a1-3)]GlcNAc
Method in brief: as §1

[21] = biological target: Fuc(a1-3)[Gal(b1-4)]GlcNAc(b1-4)Gal(b1-4)[Fuc(a1-3)]GlcNAc(b1-4)Gal(b1-4)[Fuc(a1-3)]GlcNAc
Method in brief: as §1

[22] = biological target: Fuc(a1-3)[Gal(b1-4)]GlcNAc6S
Method in brief: as §1

[23] = biological target: Fuc(a1-3)[Gal3S(b1-4)]Glc6S
Method in brief: as §1

[24] = biological target: Fuc(a1-3)[Gal3S(b1-4)]GlcNAc
Method in brief: as §1

[25] = biological target: Fuc(a1-3)[Gal3S(b1-4)]GlcNAc6S
Method in brief: as §1

[26] = biological target: Fuc(a1-3)[GalNAc(b1-4)]GlcNAc
Method in brief: as §1

[27] = biological target: Fuc(a1-3)[Neu5Ac(a2-3)]Gal(b1-4)GlcNAc(b1-3)GalNAc
Method in brief: as §1

Fuc(a1-4)GlcNAc = biological target: Fuc(a1-4)GlcNAc
Method in brief: as §1

Fuc(b1-3)GlcNAc = biological target: Fuc(b1-3)GlcNAc
Method in brief: as §1

B1: Flo5 (Saccharomyces cerevisiae), P38894 (protein)
chain: MGSSHHHHHHSSGLVPRGSHMSGATEACLPAGQRKSGMNINFYQYSLKDSSTYSNAAYMAYGYASKTKLGSVGGQTDISIDYNIPCVSSSGTFPCPQEDSYGNWGCKGMGACSNSQGIAYWSTDLFGFYTTPTNVTLEMTGYFLPPQTGSYTFSFATVDDSAILSVGGSIAFECCAQEQPPITSTNFTINGIKPWDGSLPDNITGTVYMYAGYYYPLKVVYSNAVSWGTLPISVELPDGTTVSDNFEGYVYSFDDDLSQSNCTIPDPSIH
- glycan array binding signal (z-score) [1]: -0.193
- glycan array binding signal (z-score) [2]: 0.081
- glycan array binding signal (z-score) [3]: -0.23
- glycan array binding signal (z-score) [4]: -0.121
- glycan array binding signal (z-score) [5]: -0.082
- glycan array binding signal (z-score) [6]: 0.586
- glycan array binding signal (z-score) [7]: -0.116
- glycan array binding signal (z-score) [8]: -0.156
- glycan array binding signal (z-score) [9]: -0.102
- glycan array binding signal (z-score) [10]: -0.148
- glycan array binding signal (z-score) [11]: -0.082
- glycan array binding signal (z-score) [12]: 0.079
- glycan array binding signal (z-score) [13]: 3.78
- glycan array binding signal (z-score) [14]: -0.197
- glycan array binding signal (z-score) (Fuc(a1-3)GlcNAc): -0.14
- glycan array binding signal (z-score) [15]: -0.024
- glycan array binding signal (z-score) [16]: -0.132
- glycan array binding signal (z-score) [17]: -0.126
- glycan array binding signal (z-score) [18]: -0.206
- glycan array binding signal (z-score) [19]: -0.136
- glycan array binding signal (z-score) [20]: -0.164
- glycan array binding signal (z-score) [21]: -0.162
- glycan array binding signal (z-score) [22]: -0.047
- glycan array binding signal (z-score) [23]: 0.333
- glycan array binding signal (z-score) [24]: -0.187
- glycan array binding signal (z-score) [25]: 0.19
- glycan array binding signal (z-score) [26]: -0.135
- glycan array binding signal (z-score) [27]: -0.232
- glycan array binding signal (z-score) (Fuc(a1-4)GlcNAc): -0.092
- glycan array binding signal (z-score) (Fuc(b1-3)GlcNAc): -0.16
